# Results are given in words; binding and its absence hold for the method and conditions named. Binding seen in cells or lysates may run through a third protein. Some binding calls cover weakened binding; strength is not graded here. Sequences can lack the tags named with a protein.
# T1: myc-tagged human ARMC5(L754P) (human) (UniProt Q96C12)
# T1 sequence: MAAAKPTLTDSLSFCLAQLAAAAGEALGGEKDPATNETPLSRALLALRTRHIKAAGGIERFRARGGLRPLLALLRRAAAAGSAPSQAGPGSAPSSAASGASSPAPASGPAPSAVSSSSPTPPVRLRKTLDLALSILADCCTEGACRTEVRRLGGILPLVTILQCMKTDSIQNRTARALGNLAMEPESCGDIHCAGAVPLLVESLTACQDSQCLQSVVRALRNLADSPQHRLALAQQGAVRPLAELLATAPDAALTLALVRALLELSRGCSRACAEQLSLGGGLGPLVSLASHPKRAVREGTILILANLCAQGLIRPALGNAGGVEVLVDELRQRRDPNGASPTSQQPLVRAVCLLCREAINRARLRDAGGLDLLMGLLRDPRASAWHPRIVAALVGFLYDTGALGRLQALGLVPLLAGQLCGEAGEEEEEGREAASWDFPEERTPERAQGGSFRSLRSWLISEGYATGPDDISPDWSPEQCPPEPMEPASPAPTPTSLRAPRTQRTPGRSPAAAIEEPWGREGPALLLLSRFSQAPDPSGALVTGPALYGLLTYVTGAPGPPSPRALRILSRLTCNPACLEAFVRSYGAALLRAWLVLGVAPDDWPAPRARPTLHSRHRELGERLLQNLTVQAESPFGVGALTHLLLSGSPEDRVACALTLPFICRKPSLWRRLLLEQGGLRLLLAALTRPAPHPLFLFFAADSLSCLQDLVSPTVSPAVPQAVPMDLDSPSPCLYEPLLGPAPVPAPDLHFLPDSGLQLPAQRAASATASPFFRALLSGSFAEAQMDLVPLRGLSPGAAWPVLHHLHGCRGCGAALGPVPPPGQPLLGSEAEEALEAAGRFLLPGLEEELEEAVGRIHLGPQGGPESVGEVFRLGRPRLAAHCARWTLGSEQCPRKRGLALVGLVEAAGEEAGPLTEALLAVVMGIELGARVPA
# Biological target: T1, myc-tagged human ARMC5(L754P) (human)
# Assay: co-IP; Myc IP: HEK293T cells transfected, lysed in TNE buffer (150 mM NaCl, 1% NP40), anti-myc antibody and Protein G Sepharose, blotted with anti-FLAG
binder,measurement,value
"FLAG-SREBF1(N), N-terminus of mouse SREBF1, from pcDNA3.1-FLAG-Srebf1(N) in HEK293T (domain or fragment, UniProt Q9WTN3 2-453) DELAFGEAALEQTLAEMCELDTAVLNDIEDMLQLINNQDSDFPGLFDAPYAGGETGDTGPSSPGANSPESFSSASLASSLEAFLGGPKVTPAPLSPPPSAPAALKMYPSVSPFSPGPGIKEEPVPLTILQPAAPQPSPGTLLPPSFPAPPVQLSPAPVLGYSSLPSGFSGTLPGNTQQPPSSLPLAPAPGVLPTPALHTQVQSLASQQPLPASAAPRTNTVTSQVQQVPVVLQPHFIKADSLLLTAVKTDAGATVKTAGISTLAPGTAVQAGPLQTLVSGGTILATVPLVVDTDKLPIHRLAAGSKALGSAQSRGEKRTAHNAIEKRYRSSINDKIVELKDLVVGTEAKLNKSAVLRKAIDYIRFLQHSNQKLKQENLTLRSAHKSKSLKDLVSACGSGGGTDVSMEGMKPEVVETLTPPPSDAGSPSQSSPLSFGSRASSSGGSDSEPDSP",binding,binds

# Reference: paper PMC9462479
